Measured values taken from patent US7772236B2, “Substituted pyrazoles” (Ortho McNeil Pharmaceutical, Inc., priority 2000, dated 2010).

Each molecule was assayed against Recombinant human cathepsin S (CatS) (Homo sapiens, UniProt P25774) (assay: biochemical).

In order of rising IC50:
1. Cc1ccccc1N1CCN(CC(O)Cn2nc(-c3ccc(I)cc3)c3c2CCN(C(N)=O)C3)CC1 (stereo not shown) [Example 224, 1-[2-Hydroxy-3-(4-o-tolyl-piperazin-1-yl)-propyl]-3-(4-iodo-phenyl)-1,4,6,7-tetrahydro-pyrazolo[4,3-c]pyridine-5-carboxylic acid amide]  140 nM
2. CS(=O)(=O)N1CCc2c(c(-c3ccc(Br)cc3)nn2CCCN2CCN(c3ccccc3[N+](=O)[O-])CC2)C1 [Example 272, 3-(4-Bromo-phenyl)-5-methanesulfonyl-1-{3-[4-(2-nitro-phenyl)-piperazin-1-yl]-propyl}-4,5,6,7-tetrahydro-1H-pyrazolo[4,3-c]pyridine]  150 nM
3. CC(=O)N1CCc2c(c(-c3ccc(Cl)c([N+](=O)[O-])c3)nn2CC(O)CN2CCN(c3ccccc3C#N)CC2)C1 (stereo not shown) [Example 211, 2-(4-{3-[5-Acetyl-3-(4-chloro-3-nitro-phenyl)-4,5,6,7-tetrahydro-pyrazolo[4,3-c]pyridin-1-yl]-2-hydroxy-propyl}-piperazin-1-yl)-benzonitrile]  160 nM
4. Cc1ccccc1N1CCN(CCCn2nc(-c3ccc(C(F)(F)F)cc3)c3c2CCN(S(C)(=O)=O)C3)CC1 [Example 266, 5-Methanesulfonyl-1-[3-(4-o-tolyl-piperazin-1-yl)-propyl]-3-(4-trifluoromethyl-phenyl)-4,5,6,7-tetrahydro-1H-pyrazolo[4,3-c]pyridine]  190 nM
5. CC(=O)N1CCc2c(c(-c3ccc(Br)cc3)nn2CCCN2CCN(c3nsc4ccccc34)CC2)C1 [Example 278, 1-[1-[3-(4-Benzo[d]isothiazol-3-yl-piperazin-1-yl)-propyl]-3-(4-bromo-phenyl)-1,4,6,7-tetrahydro-pyrazolo[4,3-c]pyridin-5-yl]-ethanone]  190 nM
6. COc1ccccc1N1CCN(CCCn2nc(-c3ccc(C(F)(F)F)cc3)c3c2CCN(S(C)(=O)=O)C3)CC1 [Example 267, 5-Methanesulfonyl-1-{3-[4-(2-methoxy-phenyl)-piperazin-1-yl]-propyl}-3-(4-trifluoromethyl-phenyl)-4,5,6,7-tetrahydro-1H-pyrazolo[4,3-c]pyridine]  220 nM
7. Cc1ccccc1N1CCN(CC(O)Cn2nc(-c3ccc(I)cc3)c3c2CCN(S(C)(=O)=O)C3)CC1 (stereo not shown) [Example 223, 1-[3-(4-Iodo-phenyl)-5-methanesulfonyl-4,5,6,7-tetrahydro-pyrazolo[4,3-c]pyridin-1-yl]-3-(4-o-tolyl-piperazin-1-yl)-propan-2-ol]  230 nM
8. CC(=O)N1CCc2c(c(-c3ccc(C)c(Cl)c3)nn2CC(O)CN2CCN(c3ccccc3C#N)CC2)C1 (stereo not shown) [Example 260, 2-(4-{3-[5-Acetyl-3-(3-chloro-4-methyl-phenyl)-4,5,6,7-tetrahydro-pyrazolo[4,3-c]pyridin-1-yl]-2-hydroxy-propyl}-piperazin-1-yl)-benzonitrile]  240 nM
9. CC(=O)N1CCc2c(c(-c3ccc(Br)c(Cl)c3)nn2CC(O)CN2CCN(c3ccccc3C#N)CC2)C1 (stereo not shown) [Example 262, 2-(4-{3-[5-Acetyl-3-(4-bromo-3-chloro-phenyl)-4,5,6,7-tetrahydro-pyrazolo[4,3-c]pyridin-1-yl]-2-hydroxy-propyl}-piperazin-1-yl)-benzonitrile]  290 nM
10. CC(=O)N1CCc2c(c(-c3ccc(C(F)(F)F)cc3)nn2CC(CN2CCN(c3ccccc3C#N)CC2)OCCN2CCOCC2)C1 (stereo not shown) [Example 258, 2-{4-[3-[5-Acetyl-3-(4-trifluoromethyl-phenyl)-4,5,6,7-tetrahydro-pyrazolo[4,3-c]pyridin-1-yl]-2-(2-morpholin-4-yl-ethoxy)-propyl]-piperazin-1-yl}-benzonitrile]  390 nM
11. CC(=O)N1CCc2c(c(-c3ccc(Cl)c(Cl)c3)nn2CC(O)CN2CCN(c3ccccc3C#N)CC2)C1 (stereo not shown) [Example 255, 2-(4-{3-[5-Acetyl-3-(3,4-dichloro-phenyl)-4,5,6,7-tetrahydro-pyrazolo[4,3-c]pyridin-1-yl]-2-hydroxy-propyl}-piperazin-1-yl)-benzonitrile]  400 nM
12. Cc1ccccc1N1CCN(CC(O)Cn2nc(-c3ccc(I)cc3)c3c2CCN(S(=O)(=O)C(C)C)C3)CC1 (stereo not shown) [Example 245, 1-[3-(4-Iodo-phenyl)-5-(propane-2-sulfonyl)-4,5,6,7-tetrahydro-pyrazolo[4,3-c]pyridin-1-yl]-3-(4-o-tolyl-piperazin-1-yl)-propan-2-ol]  440 nM
13. CC(=O)N1CCc2c(c(-c3ccc(C(F)(F)F)c(Cl)c3)nn2CC(O)CN2CCN(c3ccccc3C#N)CC2)C1 (stereo not shown) [Example 249, 2-(4-{3-[5-Acetyl-3-(3-chloro-4-trifluoromethyl-phenyl)-4,5,6,7-tetrahydro-pyrazolo[4,3-c]pyridin-1-yl]-2-hydroxy-propyl}-piperazin-1-yl)-benzonitrile]  470 nM
14. CC(=O)Nc1cc(-c2nn(CC(O)CN3CCN(c4ccccc4C)CC3)c3c2CN(C(C)=O)CC3)ccc1Cl (stereo not shown) [Example 230, N-(5-{5-Acetyl-1-[2-hydroxy-3-(4-o-tolyl-piperazin-1-yl)-propyl]-4,5,6,7-tetrahydro-1H-pyrazolo[4,3-c]pyridin-3-yl}-2-chloro-phenyl)-acetamide]  810 nM
15. CC(=O)N1CCc2c(c(-c3ccc(S(C)(=O)=O)cc3)nn2CC(O)CN2CCN(c3ccccc3C#N)CC2)C1 (stereo not shown) [Example 221, 2-(4-{3-[5-Acetyl-3-(4-methanesulfonyl-phenyl)-4,5,6,7-tetrahydro-pyrazolo[4,3-c]pyridin-1-yl]-2-hydroxy-propyl}-piperazin-1-yl)-benzonitrile]  820 nM
16. CNC(=O)N1CCc2c(c(-c3ccc(Cl)cc3)nn2CC(O)CN2CCN(c3ccccc3C)CC2)C1 (stereo not shown) [Example 205, 3-(4-Chloro-phenyl)-1-[2-hydroxy-3-(4-o-tolyl-piperazin-1-yl)-propyl]-1,4,6,7-tetrahydro-pyrazolo[4,3-c]pyridine-5-carboxylic acid methylamide]  950 nM
17. CC(=O)N1CCc2c(c(-c3ccc(Cl)c(N)c3)nn2CC(O)CN2CCN(c3ccccc3C#N)CC2)C1 (stereo not shown) [Example 216, 2-(4-{3-[5-Acetyl-3-(3-amino-4-chloro-phenyl)-4,5,6,7-tetrahydro-pyrazolo[4,3-c]pyridin-1-yl]-2-hydroxy-propyl}-piperazin-1-yl)-benzonitrile]  1300 nM
18. Cc1ccccc1N1CCN(CC(O)Cn2nc(-c3ccc(Cl)cc3)c3c2CCN(C(=O)NCCc2ccccc2)C3)CC1 (stereo not shown) [Example 208, 3-(4-Chloro-phenyl)-1-[2-hydroxy-3-(4-o-tolyl-piperazin-1-yl)-propyl]-1,4,6,7-tetrahydro-pyrazolo[4,3-c]pyridine-5-carboxylic acid phenethyl-amide]  1500 nM
19. CC(=O)N1CCc2c(c(-c3ccc(C(F)(F)F)cc3)nn2CC(CN2CCN(c3ccccc3C)CC2)OC(N)=O)C1 (stereo not shown) [Example 237, Carbamic acid 2-[5-acetyl-3-(4-trifluoromethyl-phenyl)-4,5,6,7-tetrahydro-pyrazolo[4,3-c]pyridin-1-yl]-1-(4-o-tolyl-piperazin-1-ylmethyl)-ethyl ester]  1500 nM
20. O=[N+]([O-])c1ccccc1N1CCN(CCCn2nc(-c3ccc(Br)cc3)c3c2CCNC3)CC1 [Example 270, 3-(4-Bromo-phenyl)-1-{3-[4-(2-nitro-phenyl)-piperazin-1-yl]-propyl}-4,5,6,7-tetrahydro-1H-pyrazolo[4,3-c]pyridine]  1800 nM
21. CCN1CCCC1CNC(CN1CCN(c2ccccc2C)CC1)Cn1nc(-c2ccc(Cl)cc2)c2c1CCN(C(C)=O)C2 (stereo not shown) [Example 214, 1-{3-(4-Chloro-phenyl)-1-[2-[(1-ethyl-pyrrolidin-2-ylmethyl)-amino]-3-(4-o-tolyl-piperazin-1-yl)-propyl]-1,4,6,7-tetrahydro-pyrazolo[4,3-c]pyridin-5-yl}-ethanone]  1900 nM
22. Brc1ccc(-c2nn(CCCN3CCN(c4nsc5ccccc45)CC3)c3c2CNCC3)cc1 [Example 281, 1-[3-(4-Benzo[d]isothiazol-3-yl-piperazin-1-yl)-propyl]-3-(4-bromo-phenyl)-4,5,6,7-tetrahydro-1H-pyrazolo[4,3-c]pyridine]  2500 nM
23. CCNC(=O)Nc1cc(-c2nn(CC(O)CN3CCN(c4ccccc4C)CC3)c3c2CN(C(C)=O)CC3)ccc1Cl (stereo not shown) [Example 228, 1-(5-{5-Acetyl-1-[2-hydroxy-3-(4-o-tolyl-piperazin-1-yl)-propyl]-4,5,6,7-tetrahydro-1H-pyrazolo[4,3-c]pyridin-3-yl}-2-chloro-phenyl)-3-ethyl-urea]  2700 nM
24. CS(=O)(=O)N1CCc2c(c(-c3ccc(Br)cc3)nn2CCCN2CCN(C3=NS(=O)(=O)c4ccccc43)CC2)C1 [Example 277, 3-(4-Bromo-phenyl)-1-{3-[4-(1,1-dioxo-1H-1λ^6-benzo[d]isothiazol-3-yl)-piperazin-1-yl]-propyl}-5-methanesulfonyl-4,5,6,7-tetrahydro-1H-pyrazolo[4,3-c]pyridine]  2800 nM
25. Cc1ccccc1N1CCN(CC(O)Cn2nc(-c3ccc(Cl)cc3)c3c2CCC(=O)C3)CC1 (stereo not shown) [Example 238, 3-(4-Chloro-phenyl)-1-[2-hydroxy-3-(4-o-tolyl-piperazin-1-yl)-propyl]-1,4,6,7-tetrahydro-indazol-5-one]  3600 nM
26. CC(=O)N1CCc2c(c(-c3ccc(Cl)c(C)c3)nn2CC(O)CN2CCN(Cc3ccccc3C#N)CC2)C1 (stereo not shown) [Example 251, 2-(4-{3-[5-Acetyl-3-(4-chloro-3-methyl-phenyl)-4,5,6,7-tetrahydro-pyrazolo[4,3-c]pyridin-1-yl]-2-hydroxy-propyl}-piperazin-1-ylmethyl)-benzonitrile]  4600 nM
27. CC(=O)N1CCc2c(c(-c3ccc(Cl)c(C)c3)nn2CC(O)CN2CCN(C(=O)Nc3ccccc3C)CC2)C1 (stereo not shown) [Example 247, 4-{3-[5-Acetyl-3-(4-chloro-3-methyl-phenyl)-4,5,6,7-tetrahydro-pyrazolo[4,3-c]pyridin-1-yl]-2-hydroxy-propyl}-piperazine-1-carboxylic acid o-tolylamide]  4900 nM
28. Cc1ccccc1N1CCN(CC(O)Cn2nc(-c3ccc(Cl)cc3)c3c2CCNC3)CC1 (stereo not shown) [Example 219, 1-[3-(4-Chloro-phenyl)-4,5,6,7-tetrahydro-pyrazolo[4,3-c]pyridin-1-yl]-3-(4-o-tolyl-piperazin-1-yl)-propan-2-ol]  10000 nM
